{"source": "the RNAGym collection of RNA variant scans (doi:10.1093/nar/gkz1192)", "parents": {"B1": {"name": "CPEB3 Ribozyme (parent)", "chain": "UAACAGGGGGCCACAGCAGAAGCGUUCACGUCGCAGCCCCUGUCAGAUUCUGGUGAAUCUGCGAAUUCUGCUGUAUAUCUC"}}, "note": "Read counts are not given, so values of variants with three or more changes are uncertain."}
{"variants_of": "B1", "experiment": "self-cleavage, relative activity (ratio to wild type); higher = more cleavage; in vitro, sequencing", "summary_of_the_method": "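Libraries of CPEB3 self-cleaving ribozyme mutants came from rounds of error-prone PCR and carried barcodes, which DNA sequencing matched to variants. In vitro transcription used T7 RNA polymerase at 37°C for 5 hours, with a further 15 min in DNase I before EDTA stopped the reaction; the ribozymes cleaved during both steps. The RNA was reverse transcribed with template switching and sequenced on Illumina. Relative activity is the cleaved/total read fraction of a variant divided by that of the unmutated ribozyme, averaged over three batches with at least 5 reads.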"}
{"variant": "UAACGGGGGGCCACAGCAGAAGCGUCCUCGUCGCAGCCCCUGUCAGAUUCAGGUAAAUCUGCGAAUUCUGCUGUAUAUCUC", "self-cleavage": 0.21}
{"variant": "UAACGGGGGGCCACAGCAGAAGCGUCCACGUCGCGGCCCCUGUCAGAUUCUGGUGAAUCUGCGAAUUCUGCUGUAUAUCUC", "self-cleavage": 0.9}
{"variant": "UAACGGGGGGCCACAGCAGAAGCGUCCACGUCGCGGCCCCUGUCAGAUUCUGGUGAAUCUGCGUGUUCCGCUGUAUAUCUC", "self-cleavage": 0.14}
{"variant": "UAACGGGGGGCCACAGCAGAAGCGUCCACGUCGCUGCCCCUGUCAGAUUCUGGUGAAUCUGCGGAUUCUGCUGUAUAUCUC", "self-cleavage": 0.22}
{"variant": "UAACGGGGGGCCACAGCAGAAGCGUCCACGUCGCAGCCCCUGUCUGAUUCUGGUGAAUCUGCGAGUUCUGCUGUAUAUCUC", "self-cleavage": 0.11}
{"variant": "UAACGGGGGGCCACAGCAGAAGCGUCCACGUCGCAGCCCCUGUCAGAUUCUGGUGUAUCUGCGAAUCCUGCUGUAUAUCUC", "self-cleavage": 0.05}
{"variant": "UAACGGGGGGCCACAGCAGAAGCGUCCACGUCGCAGCCCCUGUCAGAUUCUGGUGAGUCUGCGAAUUCCUCUGUAUAUCUC", "self-cleavage": 0.21}
{"variant": "UAACGGGGGGCCACAGCAGAAGCGUCCACGUCGCAGCCCCUGUCAGAUUCUGGUGAAUCUGCGGAUUCUGCUGUAUAUCUC", "self-cleavage": 0.52}
{"variant": "UAACGGGGGGCCACAGCAGAAGCGUCAACGUCGCAGCCCCUGUCAGAUUCCGGUGAAUCUGCGAAUUCUGCUGUAUAUCUC", "self-cleavage": 0.12}
{"variant": "UAACGGGGGGCCACAGCAGAAGCGUCCACGUAGCAGCCCCUGUCAGAUUCUGGUGAAUCUGCGAAUUCUGCUGUAUAUCUC", "self-cleavage": 0.03}
{"variant": "UAACGGGGGGCCACAGCAGAAGCGUCCACGUCGCAGUCCCUGCCAGAUUCUGGUGAAUCCGCGAAUUCUGCUGUAUAUCUC", "self-cleavage": 0.07}
{"variant": "UAACGGGGGGCCACAGCAGAAGCGUCCACGUCGCAGCGCCAGUCAGAUUCUGGUGAAUCUGCGAAUUCUGCCGUAUAUCUC", "self-cleavage": 0.09}
{"variant": "UAACGGGGGGCCACAGCAGAAGCGUCCACGUCGCAGCCCCUAUCAGAUUCUGGUGAAUCUGCGAAUUCUGCUGUAUAUCUC", "self-cleavage": 0.44}
{"variant": "UAACGGGGGGCCACAGCAGAAGCGUCCACGCCGCAGUCCCUGUCAGAUUCUGGUGAAUCUGCGAAUACUGCUGUAUAUCUC", "self-cleavage": 0.11}
{"variant": "UAACGGGGGGCCACAGCAGAAGCGUCCACGUCGCAGCCCCAGACAGAUUCUGGUGAAUCUGCGAAUUCUGUUGUAAAUCUC", "self-cleavage": 0.08}
{"variant": "UAACGGGGGGCCACAGCAGAAGCGUCCACGUCGCAGCCCCGGUCAGAUUCUGGUGUAUCUGCGAAUUCUGCUGUAUACCUC", "self-cleavage": 0.25}
{"variant": "UAACGGGGGGCCACAGCAGAAGCGUCCACGUCGCAGCCCCUGUCAGAUUCUGGCGAAUCUGCGAAUUCUGCUGCAUUUCUC", "self-cleavage": 0.61}
{"variant": "UAACGGGGGGCCACAGCAGAAGCGUCCACGUCGCAGCCCCUGUCAGAUUCUGGUGAAUCAGCGAAUUCUGCAGUAUAUCUC", "self-cleavage": 0.2}
{"variant": "UAACGGGGGGCCACAGCAGAAGCGUCCACGUCGCAGCCCCUGUCAGAUUCUGGUGAAUCUGCGAAUCCCGCUGUUUAUCUC", "self-cleavage": 0.15}
{"variant": "UAACGGGGGGCCACAGCAGAAGCGUGCACGUCGCAGCCCCUGUCGGAUUCUGGUGAAUCUGCGAAUUCUGCUGUAUAUCUC", "self-cleavage": 0.51}
{"variant": "UAACGGGGGGCCACAGCAGAAGCGUGCACGUCGCAGCCCCUGUCAGAUUCUGGUGAAUCUGCGAAUUCUGCUGUAUGUCUC", "self-cleavage": 0.29}
{"variant": "UAACGGGGGGCCACAGCAGAAGCGUGCACGUCGCAGCCCCUGUCAGAUUCUGGUGAAUCUGUGAAUCCUGCUGUAUAUCUC", "self-cleavage": 0.12}
{"variant": "UAACGGGGGGCCACAGCAGAAGCGUUCACGACGCGGCCCCUGCCAGAUUCUGGUGUAUCUGCGAAUUCUGCUGUAUAUCUC", "self-cleavage": 0.23}
{"variant": "UAACGGGGGGCCACAGCAGAAGCGUUCACGACGCAGCCCCUGUCUGAUUCUGGUGAAUCUGCGAGUUCCGCUGUAUAUCUC", "self-cleavage": 0.11}
{"variant": "UAACGGGGGGCCACAGCAGAAGCGUUCACGACGCAGCCCCCGUCAGAUUCUGGUGAAUCUGCGAAUUCCGCUGUAUAUCUC", "self-cleavage": 0.38}
{"variant": "UAACGGGGGGCCACAGCAGAAGCGUUCACGACGCAGCCCCUGUCAGAUUCUGGAGAAUCUGCGAAUUCUGCUGUAUACCUC", "self-cleavage": 0.51}
{"variant": "UAACGGGGGGCCACAGCAGAAGCGUUCACGCCGCAGCCCCUGUCGGAUCCUGGUUAAUCUGCGAAUUCUGCUGUAUAUCUC", "self-cleavage": 0.35}
{"variant": "UAACGGGGGGCCACAGCAGAAGCGUUCACGCCGCAGCCCCUGUCGGAUUCUGGUGAAUCUGCGAAUUCUGCCGUAUAUCUC", "self-cleavage": 0.39}
{"variant": "UAACGGGGGGCCACAGCAGAAGCGUUCACGCCGCAGCCCCUGUCAGGUUCUGGUGGAUCCGCGAAUUCUGCUGUAUGCCUC", "self-cleavage": 0.12}
{"variant": "UAACGGGGGGCCACAGCAGAAGCGUUCACGCUGCAGCCCCUGUCAGAUUCUGGUGAAUCUGCGAAUUCUGCUGUAUAUCUC", "self-cleavage": 0.19}
{"variant": "UAACGGGGGGCCACAGCAGAAGCGUUCACGCCGCAGUCCCUGUCAGAUUCUGGUGAAUCUGCGAAUUCUGCUGCAUAUCUC", "self-cleavage": 0.53}
{"variant": "UAACGGGGGGCCACAGCAGAAGCGUUCACGCCGCAGCCACUGUCAGGAUCUGGUGAAUCUGCGAAUUCUGCUGUAUAUCUC", "self-cleavage": 0.37}
{"variant": "UAACGGGGGGCCACAGCAGAAGCGUUCACGCCUCAGCCUCUGUCAGAUUCUGGUGAGUCUGCGAAUUCUGCUGUAUAUCUC", "self-cleavage": 0.65}
{"variant": "UAACGGGGGGCCACAGCAGAAGCGUUCACGCCGCAGCCCCUGUCAGAUUCUUGUGAAUCUGCGAAUUCUGCCGUAUAUCUC", "self-cleavage": 0.3}
